Our source for the binding signal (log2 fold change) values is paper PMC5892938.

The list shows a part of the results. At the low end of the ranking, values are background and their order means little.

The assay concerns the target GST-SBP-SLBP (stem-loop binding protein) (UniProt Q14493). Briefly: targeted RNA Bind-n-Seq.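 Also: DESeq read counts versus GST-SBP nonspecific binding control pulldown.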 Conditions: RBNS binding buffer: 25 mM Tris pH 7.5, 150 mM KCl, 3 mM MgCl2, 0.1% Tween, 0.5 mg/mL BSA, 1 mM DTT; 27 nM protein, 750 pM RNA pool; temperature not stated; high values mean tight binding.
Regarding “GGUCACGUCUCAAUCAACUCAAUUUCCAGGGAAAACCCUGGCAUACUCAACAGCUCGCAGUCAAG”, the binding signal (log2 fold change) is -0.173.
As for “GGUCACGUCUCAAUCAACUCUUUCUCCAGGGAAAACCCUGGUUUAUUCAACAGCUCGCAGUCAAG”, the figure is -0.172; as for “GGUCACGUCUCAAUCAACUCUAUCUCAGGAGUUUUCUCCUGUUUUCUCAACAGCUCGCAGUCAAG”, 0.0085; as for “GGUCACGUCUCAAUCAACUCAACUCCCAGGGAAAUCCCUGGUAAUCUCAACAGCUCGCAGUCAAG”, -0.103.
Turning to “GGUCACGUCUCAAUCAACUCAUCCCCAGGAGUUUACUCCUGUUAAUUCAACAGCUCGCAGUCAAG”, the binding signal (log2 fold change) turned out to be 0.0839.
Under “GGUCACGUCUCAAUCAACUCAUACGAGGGGGGGAAAACCCCUUUACCCUCAUCUUCAACAGCUCGCAGUCAAG” stands -0.118; under “GGUCACGUCUCAAUCAACUCAUCCUCAGGAGUUUCCUCCUGCUAUUUCAACAGCUCGCAGUCAAG”, 0.0907; under “GGUCACGUCUCAAUCAACUCAUCGCCAGGAGUUUACUCCUGCAAUUUCAACAGCUCGCAGUCAAG”, -0.0847.
Turning to “GGUCACGUCUCAAUCAACUCAAUCUCCAGGGAAAACCCUGGCAUUCUCAACAGCUCGCAGUCAAG”, the binding signal (log2 fold change) was determined as 0.0482.
On to “GGUCACGUCUCAAUCAACUCAUCGUCAGGAGUUUUCUCCUGUUAUCUCAACAGCUCGCAGUCAAG”, for which the binding signal (log2 fold change) is -0.02.
As for “GGUCACGUCUCAAUCAACUCUAUUUCCAGGGAAAACCCUGGUUUUCUCAACAGCUCGCAGUCAAG”, the figure is -0.0315.
On to “GGUCACGUCUCAAUCAACUCUUCUUCCAGGGAAAUCCCUGGUUUACUCAACAGCUCGCAGUCAAG”, for which the binding signal (log2 fold change) was 0.00957.
On to “GGUCACGUCUCAAUCAACUCAAUCUCAGGAGUUUACUCCUGUAUAGUCAACAGCUCGCAGUCAAG”, for which the binding signal (log2 fold change) was -0.00804.
Under “GGUCACGUCUCAAUCAACUCAUUCCCCAGGGAAACCCCUGGCUUUUUCAACAGCUCGCAGUCAAG” stands -0.00462; under “GGUCACGUCUCAAUCAACUCAAUCUCAGGAGUUUUCUCCUGUAAAGUCAACAGCUCGCAGUCAAG”, -0.0456.
“GGUCACGUCUCAAUCAACUCAACUUCAGGAGUUUACUCCUGCAUAUUCAACAGCUCGCAGUCAAG”: the binding signal (log2 fold change) was 0.194.
Under “GGUCACGUCUCAAUCAACUCUCAAGAGGGGGGGAAAACCCCUUUACCCUCCUACUCAACAGCUCGCAGUCAAG” stands -0.52; under “GGUCACGUCUCAAUCAACUCGUCUUCAGGAGUUUACUCCUGCAAUUUCAACAGCUCGCAGUCAAG”, -0.0565.
As for “GGUCACGUCUCAAUCAACUCAACUUCCAGGGAAAACCCUGGCAUAUUCAACAGCUCGCAGUCAAG”, the figure is -0.152.
As for “GGUCACGUCUCAAUCAACUCAUCUUCCAGGGAAAACCCUGGUUUACUCAACAGCUCGCAGUCAAG”, the figure is -0.0503; as for “GGUCACGUCUCAAUCAACUCAAUCCCAGGAGUUUUCUCCUGUAUGUUCAACAGCUCGCAGUCAAG”, 0.191.
Take “GGUCACGUCUCAAUCAACUCUAUUCCCAGGGAAAACCCUGGCAAACUCAACAGCUCGCAGUCAAG”: the binding signal (log2 fold change) is -0.0282.
Regarding “GGUCACGUCUCAAUCAACUCAUUUUCAGGAGUUUCCUCCUGCUUAGUCAACAGCUCGCAGUCAAG”, the binding signal (log2 fold change) was 0.0303.
Consider “GGUCACGUCUCAAUCAACUCAACUUCCAGGGAAACCCCUGGCAUUCUCAACAGCUCGCAGUCAAG”, for which the binding signal (log2 fold change) turned out to be 0.0059.
Under “GGUCACGUCUCAAUCAACUCUUUUCCAGGAGUUUACUCCUGUAAUUUCAACAGCUCGCAGUCAAG” stands 0.00294; under “GGUCACGUCUCAAUCAACUCUUUCGCAGGAGUUUACUCCUGGUAUCUCAACAGCUCGCAGUCAAG”, 0.0913.
Under “GGUCACGUCUCAAUCAACUCCCUAGAGGGGGGGAAAACCCCUUUACCCUCGUUCUCAACAGCUCGCAGUCAAG” stands 0.184; under “GGUCACGUCUCAAUCAACUCCUCUGAGGGGGGGAAAACCCCUUUACCCUCUUUUUCAACAGCUCGCAGUCAAG”, 0.0269; under “GGUCACGUCUCAAUCAACUCCUUCGAGGGGGGGAAAACCCCUUUACCCUCACCAUCAACAGCUCGCAGUCAAG”, -0.61.
With “GGUCACGUCUCAAUCAACUCAACGCCAGGAGUUUGCUCCUGUAUAUUCAACAGCUCGCAGUCAAG”, the binding signal (log2 fold change) turned out to be 0.012.
On to “GGUCACGUCUCAAUCAACUCUUUUUCCAGGGAAAACCCUGGUAGUCUCAACAGCUCGCAGUCAAG”, for which the binding signal (log2 fold change) was -0.0839.
On to “GGUCACGUCUCAAUCAACUCUAUCUCAGGAGUUUCCUCCUGUAAUCUCAACAGCUCGCAGUCAAG”, for which the binding signal (log2 fold change) is -0.0108.
Under “GGUCACGUCUCAAUCAACUCUUCCUCCAGGGAAAACCCUGGUAUAUUCAACAGCUCGCAGUCAAG” stands 0.164; under “GGUCACGUCUCAAUCAACUCACAAGAGGGGGGGAAAACCCCUUUGCCCUCGAAAUCAACAGCUCGCAGUCAAG”, -0.113.
For the sequence “GGUCACGUCUCAAUCAACUCUUCGCCAGGAGUUUUCUCCUGCAUUUUCAACAGCUCGCAGUCAAG”, the binding signal (log2 fold change) was -0.168.
As for “GGUCACGUCUCAAUCAACUCCAUAGAGGGGGGGAAAACCCCUUUACCCUCAUAAUCAACAGCUCGCAGUCAAG”, the figure is -0.148; as for “GGUCACGUCUCAAUCAACUCUUCUUCAGGAGUUUACUCCUGCUUUCUCAACAGCUCGCAGUCAAG”, -0.0265; as for “GGUCACGUCUCAAUCAACUCAUUAGAGGGGGGGAAAACCCCUUUACCCUCACAUUCAACAGCUCGCAGUCAAG”, 0.258.
“GGUCACGUCUCAAUCAACUCAUAAGAGGGGGGGAAAACCCCUUUACCCUCACCGUCAACAGCUCGCAGUCAAG”: the binding signal (log2 fold change) was -0.431.
For “GGUCACGUCUCAAUCAACUCUUCUCCCAGGGAAAGCCCUGGCUAUUUCAACAGCUCGCAGUCAAG”, the binding signal (log2 fold change) is -0.111.
“GGUCACGUCUCAAUCAACUCCAAAGAGGGGGGGAAAACCCCUUUACCCUCAAACUCAACAGCUCGCAGUCAAG”: the binding signal (log2 fold change) was -0.0467.
“GGUCACGUCUCAAUCAACUCAUUCCCCAGGGAAACCCCUGGCAUACUCAACAGCUCGCAGUCAAG”: the binding signal (log2 fold change) was 0.0461.
Turning to “GGUCACGUCUCAAUCAACUCUAUUUCCAGGGAAAACCCUGGUUUAUUCAACAGCUCGCAGUCAAG”, the binding signal (log2 fold change) is -0.0119.
Consider “GGUCACGUCUCAAUCAACUCAUCGUCCAGGGAAAACCCUGGCUUAUUCAACAGCUCGCAGUCAAG”, for which the binding signal (log2 fold change) was 0.0837.
Regarding “GGUCACGUCUCAAUCAACUCAUCGUCAGGAGUUUUCUCCUGUAAUCUCAACAGCUCGCAGUCAAG”, the binding signal (log2 fold change) came to 0.0565.
As for “GGUCACGUCUCAAUCAACUCCAACGAGGGGGGGAAAACCCCUUUACCCUCACUAUCAACAGCUCGCAGUCAAG”, the figure is -0.0606; as for “GGUCACGUCUCAAUCAACUCCUUAGAGGGGGGGAAAACCCCUUUACCCUCCAUCUCAACAGCUCGCAGUCAAG”, -0.284; as for “GGUCACGUCUCAAUCAACUCUUCUUCCAGGGAAAGCCCUGGUUUAUUCAACAGCUCGCAGUCAAG”, -0.251.
In the case of “GGUCACGUCUCAAUCAACUCAAUCUCAGGAGUUUUCUCCUGUAAUCUCAACAGCUCGCAGUCAAG”, the binding signal (log2 fold change) came to 0.00759.
As to “GGUCACGUCUCAAUCAACUCAUUCCCCAGGGAAACCCCUGGCAUUUUCAACAGCUCGCAGUCAAG”, the binding signal (log2 fold change) was found to be 0.165.
Under “GGUCACGUCUCAAUCAACUCAUUCUCCAGGGAAAACCCUGGCUAACUCAACAGCUCGCAGUCAAG” stands 0.123.
For “GGUCACGUCUCAAUCAACUCUUUCCCAGGAGUUUUCUCCUGUAAUGUCAACAGCUCGCAGUCAAG”, the binding signal (log2 fold change) was -0.191.
As for “GGUCACGUCUCAAUCAACUCAUCCCCCAGGGAAAUCCCUGGUUUACUCAACAGCUCGCAGUCAAG”, the binding signal (log2 fold change) was -0.00885.
Under “GGUCACGUCUCAAUCAACUCAAAAGAGGGGGGGAAAACCCCUUUACCCUCGUAUUCAACAGCUCGCAGUCAAG” stands -0.357.
As for “GGUCACGUCUCAAUCAACUCAAUUCCAGGAGUUUCCUCCUGUAUACUCAACAGCUCGCAGUCAAG”, the figure is 0.108.
Consider “GGUCACGUCUCAAUCAACUCUACUUCCAGGGAAAACCCUGGCUAAUUCAACAGCUCGCAGUCAAG”, for which the binding signal (log2 fold change) was determined as 0.16.
Under “GGUCACGUCUCAAUCAACUCUUUCGAGGGGGGGAAAACCCCUUUACCCUCAUCUUCAACAGCUCGCAGUCAAG” stands 0.144; under “GGUCACGUCUCAAUCAACUCAUUCUCCAGGGAAACCCCUGGCAAACUCAACAGCUCGCAGUCAAG”, -0.0125; under “GGUCACGUCUCAAUCAACUCAAUUCCCAGGGAAAUCCCUGGCAUACUCAACAGCUCGCAGUCAAG”, -0.0497.
Regarding “GGUCACGUCUCAAUCAACUCAAUUCCCAGGGAAAGCCCUGGCUAAUUCAACAGCUCGCAGUCAAG”, the binding signal (log2 fold change) was found to be 0.143.
Turning to “GGUCACGUCUCAAUCAACUCAACUUCCAGGGAAAACCCUGGUAUUCUCAACAGCUCGCAGUCAAG”, the binding signal (log2 fold change) was -0.0572.
As for “GGUCACGUCUCAAUCAACUCUAUCUCCAGGGAAACCCCUGGUUAAUUCAACAGCUCGCAGUCAAG”, the binding signal (log2 fold change) is -0.228.
As for “GGUCACGUCUCAAUCAACUCAAUCCCCAGGGAAAUCCCUGGCUAUUUCAACAGCUCGCAGUCAAG”, the binding signal (log2 fold change) worked out at 0.193.
Turning to “GGUCACGUCUCAAUCAACUCUCUAGAGGGGGGGAAAACCCCUUUACCCUCCACGUCAACAGCUCGCAGUCAAG”, the binding signal (log2 fold change) is -0.424.
“GGUCACGUCUCAAUCAACUCAAUCCCCAGGGAAACCCCUGGCAAUUUCAACAGCUCGCAGUCAAG”: the binding signal (log2 fold change) was -0.197.
Consider “GGUCACGUCUCAAUCAACUCAAUUUCCAGGGAAAUCCCUGGCUUUUUCAACAGCUCGCAGUCAAG”, for which the binding signal (log2 fold change) worked out at 0.0361.
As for “GGUCACGUCUCAAUCAACUCAUUCCCCAGGGAAAACCCUGGCUAAUUCAACAGCUCGCAGUCAAG”, the figure is -0.181; as for “GGUCACGUCUCAAUCAACUCUUCUUCCAGGGAAAUCCCUGGCUAACUCAACAGCUCGCAGUCAAG”, -0.106; as for “GGUCACGUCUCAAUCAACUCUUCGGAGGGGGGGAAAACCCCUUUACCCUCAUUUUCAACAGCUCGCAGUCAAG”, 0.0856.
For “GGUCACGUCUCAAUCAACUCCUAAGAGGGGGGGAAAACCCCUUUGCCCUCACCAUCAACAGCUCGCAGUCAAG”, the binding signal (log2 fold change) was -0.181.
In the case of “GGUCACGUCUCAAUCAACUCCCCAGAGGGGGGGAAAACCCCUUUGCCCUCAAAUUCAACAGCUCGCAGUCAAG”, the binding signal (log2 fold change) was -0.155.
Regarding “GGUCACGUCUCAAUCAACUCUACUUCCAGGGAAAACCCUGGCUUUUUCAACAGCUCGCAGUCAAG”, the binding signal (log2 fold change) is -0.369.
For the sequence “GGUCACGUCUCAAUCAACUCAAUUUCCAGGGAAAGCCCUGGCAUAGUCAACAGCUCGCAGUCAAG”, the binding signal (log2 fold change) was -0.207.
With “GGUCACGUCUCAAUCAACUCCAAAGAGGGGGGGAAAACCCCUUUGCCCUCGAAAUCAACAGCUCGCAGUCAAG”, the binding signal (log2 fold change) amounted to 0.347.
